Laboratory results reported in patent US20060234955A1, “Cardiac glycosides to treat cystic fibrosis and other il-8 dependent disorders” (priority 2002, published 2006).

Test system: IL-8 secretion from cystic fibrosis epithelial cell line IB-3
Conditions: not given

SMILES	IL-8 secretion by IB3 cells
CCCn1c(=O)c2[nH]c(C3CCCC3)nc2n(CCC)c1=O [CPX, 1,3-Dipropyl-8-Cyclopentyl xanthine, reference compound]	suppressed
CCNC [MEA, methyl-ethylamine, reference compound]	suppressed

Same assay, conditions: concentration of 1000 nM (1 micromolar)

SMILES	activity on IL-8 secretion at 1000 nM
CC(=O)O[C@H]1CC[C@@]2(C)[C@H](CC[C@@H]3[C@@H]2C[C@@H](OC(C)=O)[C@]2(C)[C@@H](C4=CC(=O)OC4)CC[C@]32O)C1 (single isomer, unassigned; diac) [VIII, digoxingenin, 3,12-diAc]	entirely inactive

Same assay, conditions: inhibition of IL-8 secretion from cystic fibrosis epithelial cell line IB-3; 48 hour incubation

SMILES	ID50
C[C@H]1O[C@@H](O[C@H]2[C@@H](O)C[C@H](O[C@H]3[C@@H](O)C[C@H](O[C@H]4CC[C@@]5(C)[C@H](CC[C@@H]6[C@@H]5C[C@@H](O)[C@]5(C)[C@@H](C7=CC(=O)OC7)CC[C@]65O)C4)O[C@@H]3C)O[C@@H]2C)C[C@H](O)[C@@H]1O [III, digoxin, reference compound]	5.4 nM
C[C@]12CC[C@H](O)C[C@H]1CC[C@@H]1[C@@H]2C[C@@H](O)[C@]2(C)[C@@H](C3=CC(=O)OC3)CC[C@]12O [V, digoxigenin]	17.0 nM
CC(=O)O[C@H]1CC[C@]2(C=O)[C@H]3CC[C@]4(C)[C@@H](C5=CC(=O)OC5)CC[C@]4(O)[C@@H]3CC[C@]2(O)C1 [VII, acetyl-stropanthidin]	60 nM
CC(=O)O[C@H]1CC[C@@]2(C)[C@H](CC[C@@H]3[C@@H]2C[C@@H](OC(C)=O)[C@]2(C)[C@@H](C4=CC(=O)OC4)CC[C@]32O)C1 (single isomer, unassigned; diac) [VIII, digoxingenin, 3,12-diAc]	> 1000 nM
C[C@@H]1O[C@@H](O[C@H]2C[C@@H](O)[C@]3(CO)[C@H]4[C@H](O)C[C@]5(C)[C@@H](C6=CC(=O)OC6)CC[C@]5(O)[C@@H]4CC[C@]3(O)C2)[C@H](O)[C@H](O)[C@H]1O [Compound IV, ouabain, reference compound]	8.0 nM
CO[C@H]1C[C@H](O[C@H]2CC[C@@]3(C)[C@H](CC[C@@H]4[C@@H]3CC[C@]3(C)[C@@H](C5=CC(=O)OC5)[C@@H](OC(C)=O)C[C@]43O)C2)O[C@@H](C)[C@@H]1O [Compound I]	1.0 nM
C[C@H]1O[C@@H](O[C@H]2[C@@H](O)C[C@H](O[C@H]3[C@@H](O)C[C@H](O[C@H]4CC[C@@]5(C)[C@H](CC[C@@H]6[C@@H]5CC[C@]5(C)[C@@H](C7=CC(=O)OC7)CC[C@]65O)C4)O[C@@H]3C)O[C@@H]2C)C[C@H](O)[C@@H]1O [II, digitoxin, reference compound]	1.3 nM
C[C@]12CC[C@H](O)C[C@H]1CC[C@@H]1[C@@H]2CC[C@]2(C)[C@@H](C3=CC(=O)OC3)CC[C@]12O [VI, digitoxigenin]	25.0 nM
